# Whole data set: some 33,000 sequences, median “E-score (-0.5 to 0.5)” near -0.016, cut for the highest 2% near 0.31. The list shows a part of the results.
# Molecular target: Cst6 (UniProt P40535)
# Experiment: PBM E-score (8-mer binding enrichment) (E-score (-0.5 to 0.5)); higher = stronger / more preferred TF binding; most listed sequences are background and not binding sites
# Details: protein concentration: 200 nM; construct: GST-DNA-binding domain
# In short: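 Each ungapped eight-base word and its reverse complement, pooled, received an E-score from the Universal PBM Analysis Suite. Underlying scans, normalised with masliner, recorded fluorescent anti-GST bound to GST-tagged yeast transcription factors. These were applied at about 100-200 nM to universal all-10-mer Agilent arrays double-stranded by primer extension.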
row,Sequence,PBM E-score
1,ACGATGAG,0.119
2,GTGTGCAA,-0.129
3,GAGACATA,-0.00422
4,CGATCACA,0.117
5,GCTGTTGA,0.269
6,CCCTAATA,-0.0994
7,GCATTCAA,0.0262
8,ACTCCCAA,-0.145
9,CTCGAAAG,-0.125
10,CGTTCTAG,0.00736
11,CTAGACAG,-0.119
12,ACTAGTAC,-0.0411
13,CAATGACA,0.341
14,CTACAGCA,-0.121
15,GAGACCAA,-0.0329
16,AATTAAGA,0.0948
17,GATCTTCA,0.0767
18,GCCTTTTA,0.042
19,ACTAAAAA,0.115
20,CGCCTCGC,0.168
21,CGCCCGTA,-0.322
22,ACCACGAG,-0.0646
23,AGCTTGTC,-0.0644
24,AATGATCG,0.0987
25,ATTTATAG,0.106

row,Sequence,PBM E-score
1,ATGGGACA,-0.204
2,GCACGGCC,0.23
3,ACTATGAT,0.161
4,ACATTAGC,0.0763
5,CATTAGAA,0.172
6,ACTTACTC,-0.0736
7,CATAAGTA,-0.0415
8,CGCCTGAG,-0.0809
9,GAAATAAA,0.251
10,CGACCGCG,-0.178
11,ACACACCT,0.0393
12,AATGGTAA,0.0856
13,CAAACTGA,0.048
14,CCACCCCA,-0.0583
15,CGGACGCA,-0.0966
16,ATATTACG,0.415
17,GGGCACCC,-0.255
18,ACCAGTAT,-0.143
19,TACCACTA,-0.0366
20,AAGAAACA,0.225
21,CAGGACAG,-0.178
22,ATCAAATC,0.192
23,AATTGAGA,0.193
24,CCGATTAC,-0.0622
25,GAGGCCAA,-0.158

row,Sequence,PBM E-score
1,GATGGCGA,0.00313
2,AGAATACA,0.142
3,AGGGCAGG,-0.288
4,CGGGAGGA,-0.212
5,ACCTGGCA,-0.218
6,ATCTTATG,0.112
7,ACTGGGTA,-0.0366
8,AAATTTCA,-0.0471
9,GTAGACCA,-0.102
10,AATATCGT,0.256
11,TGCTAACA,0.0134
12,CGTTTCAA,0.066
13,ATTGGATA,0.129
14,AAAGCAAC,0.001
15,AACAGTCG,0.0287
16,GGGGATAA,-0.0964
17,CCCTTCGC,-0.231
18,ACTCCGGG,-0.111
19,TCTAGCCA,-0.0556
20,AAATGTAT,0.218
21,GGTCTTCA,-0.247
22,CAAGCCGA,0.0563
23,AACATTAT,0.229
24,CAGATGTA,-0.105
25,AAGCACAG,0.104

row,Sequence,PBM E-score
1,CGGGTTCA,-0.134
2,CATATAAC,0.151
3,ACCCCACT,-0.194
4,ACAGTATG,-0.048
5,AGTCCACA,-0.0918
6,CACTTCCA,0.116
7,AGCGCCTC,0.0152
8,TGCTGACA,0.0293
9,CGCAAAAA,0.136
10,CAAGAATC,0.0835
11,ATCAACGA,0.0315
12,CAGGACAC,-0.116
13,TATAATCA,0.308
14,AACAACCG,0.0738
15,AAATATAT,0.27
16,ACATTGCG,0.0641
17,AACACCCA,-0.246
18,GCGCTGTA,-0.0219
19,GCACGAAA,0.185
20,ATTCGTGA,0.2
21,GAGTGCCA,-0.349
22,ATAGAGAT,0.123
23,GCAGCCGA,-0.053
24,ATCATATC,0.291
25,GACAATGA,-0.0231

row,Sequence,PBM E-score
1,GCCAAGTA,-0.208
2,CGCTACTA,0.0388
3,CTTGACTC,-0.223
4,GCTGTGGA,-0.178
5,ACAGACGG,-0.0429
6,AAATGGCC,-0.0934
7,ACTTACGG,0.147
8,ATGAGGCC,-0.179
9,AGCCGATA,-0.0664
10,GGTCTGAA,0.0147
11,GTAGAAAA,0.176
12,TGATCTAA,0.247
13,AGGCTTCC,-0.0849
14,CCCGTGAA,-0.158
15,TTGGTAAA,0.174
16,GAATCGCC,-0.0915
17,CGGATGTA,-0.0158
18,AGGAGGCA,-0.178
19,ATACACAC,0.00224
20,AGTCGTGG,-0.165
21,GAACAAAC,0.239
22,AACATCAC,0.295
23,GGAATCGA,-0.114
24,GTATCACA,0.245
25,TTACAGAA,0.0112

row,Sequence,PBM E-score
1,CACGGTTA,0.153
2,CCATAGAA,-0.085
3,CAAATTCC,0.0681
4,CAAAGGGA,-0.0363
5,TGCGTTAA,0.0114
6,ACGGCGGA,0.0799
7,AGTACCAA,0.157
8,CCGGGCCC,-0.179
9,AGCACGTC,0.0785
10,CCCTACTC,0.0563
11,AATCTACA,0.186
12,AGTGACAC,0.274
13,CCCCCTTA,-0.368
14,AGCTTGAC,-0.144
15,GAATCACA,0.0993
16,AACCTATC,-0.142
17,AAAGCTCT,-0.384
18,CTTGGCTC,-0.106
19,AGCGGAGG,-0.226
20,GGCGTTAC,0.0786
21,ACCTTAGG,-0.178
22,ACGTAGGC,0.0825
23,AGATACCG,0.143
24,CTTACATA,0.25
25,CAATCGTC,0.19

row,Sequence,PBM E-score
1,ACGAAGGG,-0.0683
2,CCGTCACA,0.139
3,TACTTTCA,0.0423
4,AGAAGCCC,-0.197
5,CATAGGTC,-0.0833
6,GGGCCCCA,-0.256
7,CAAGTACG,-0.114
8,AGTCCTCA,-0.103
9,ATCCTGCA,0.171
10,CGCAGACG,0.00129
11,GACCGATC,-0.236
12,ATTGAATG,0.0816
13,AAGGTCCA,-0.287
14,GTGTTGAA,0.0169
15,CCGTATCG,-0.175
16,CCGCGCAG,0.0336
17,GGGCCACA,-0.162
18,CCGTCGTC,-0.0979
19,ATTCGCGC,0.119
20,CAGACGAG,-0.16
21,CGCTTAAC,0.00861
22,ATCCGCCG,0.188
23,AGTTGTTA,0.116
24,AAGCGTGT,-0.0703
25,AGCCAGTG,-0.171

row,Sequence,PBM E-score
1,TCGGGTCA,-0.143
2,CGCTATAA,0.0251
3,CCAAATGC,-0.102
4,AGTACTAT,-0.061
5,ATTACTCA,0.133
6,ACTATGCC,0.0934
7,CCCTGCGG,-0.252
8,AACACTCT,0.085
9,ACAATGTC,0.0515
10,AAAAGTGG,0.112
11,CGTGACTA,0.11
12,CTAATCGA,0.0311
13,AATACCGA,-0.121
14,ACTCTGAA,0.091
15,AGATAAGA,0.263
16,CTTACAGA,0.00756
17,AGCGCAGC,-0.302
18,CAATGCAG,0.0246
19,CCCGATGA,0.0933
20,TATGGCGA,0.0467
21,ATAGAGAA,0.127
22,CAGTCAAA,-0.00144
23,ACAGGCAC,-0.145
24,CGCATAGA,-0.0213
25,AAACGCTT,0.0101

row,Sequence,PBM E-score
1,TCTTAACA,0.15
2,CACTTGAA,0.0854
3,AGGAGCAT,-0.0197
4,AGTTAACC,-0.11
5,CGAGACGC,-0.142
6,AATACATT,0.153
7,TAAAGTGA,0.201
8,ACGGTAAA,0.129
9,ACTCCAAG,0.0619
10,TCACGTCA,0.49
11,TTTGCAAA,0.0781
12,GTCTAGCA,-0.205
13,AGTGGGGC,-0.229
14,GAAGTGCA,0.125
15,AAGATAAT,0.151
16,GCGGTCAA,-0.0742
17,CCGCGGTC,-0.185
18,GCCCTAGC,-0.148
19,CATATTTA,0.192
20,CCTATGAG,-0.0002
21,AAGACGTC,0.28
22,AGATGACG,0.473
23,AGAGCGAC,-0.119
24,AAAAACGC,0.172
25,AACTGTCA,0.12

row,Sequence,PBM E-score
1,ACCTGCAG,-0.175
2,AGTTGCGA,0.0793
3,CATCTCGC,0.0148
4,AGCTAGTC,-0.00466
5,CCCTCGAG,-0.162
6,ACCCTTGA,-0.0553
7,ACAATGCG,0.107
8,ACAGTGTA,-0.0349
9,GAGTTGCC,-0.0921
10,ACCTAAGC,0.0311
11,CGGATACC,-0.138
12,AGATCAGA,-0.0434
13,CGTTCTCC,-0.174
14,AGTAGGAC,-0.136
15,TGCCACCA,-0.204
16,ACGTTAAG,0.0326
17,ACTGATAG,0.00116
18,AGAAGCAC,-0.0555
19,ATCTAACG,0.101
20,GGTGCTCA,-0.188
21,CGGACCGC,-0.191
22,AATCTAGA,-0.0962
23,AGCCGTAC,0.197
24,CGAGCATC,-0.152
25,AGAACGAA,0.162

row,Sequence,PBM E-score
1,AGCCGACT,-0.232
2,TCTGGGCA,-0.164
3,ACAAACAG,0.108
4,GATAAGAA,0.291
5,TGAAGACA,0.0428
6,CGCGCCGA,0.137
7,CCCGGCCA,-0.315
8,CAACTAAG,0.0901
9,GCTGCGCC,-0.151
10,TTACGTAA,0.493
11,AGCCCTTC,-0.221
12,CAGCTGCA,-0.0829
13,CAAGTCTC,-0.247
14,ACGTCCAC,0.179
15,GAACCAAA,-0.0818
16,AGCATAAA,0.167
17,AAAGGTAT,0.0448
18,AGCAGTCG,-0.277
19,AGCCACCC,-0.295
20,ACCGAAAT,0.0886
21,ACGGGAAC,-0.14
22,AGAAGGAA,-0.175
23,AGCGTTAA,-0.0501
24,ACGTGTTA,0.224
25,AGATAGCA,-0.0144

row,Sequence,PBM E-score
1,CTAGGCGA,-0.118
2,GACTTTAC,-0.0308
3,ATTGTTCA,0.123
4,CTGTTTGC,0.0855
5,CTACATGA,-0.0181
6,CGATTGAA,0.0857
7,AGGCCACG,-0.134
8,TAGCGCGA,0.0472
9,CGATAGTA,0.0397
10,TACTATCA,0.11
11,ACCCGCGT,0.079
12,GTTTCGCA,-0.0982
13,CATATACC,-0.0904
14,GGGGCAGA,-0.0899
15,ATCAGAGA,-0.00176
16,CATTCTAA,0.173
17,AATCACTC,-0.0124
18,ACGCACCA,0.0811
19,ACTAAGCA,0.0715
20,CCTGCTGC,-0.182
21,GAAGTGTC,0.0547
22,ACTGAGTG,-0.0254
23,AGGTTTCA,0.00548
24,TAATCCAA,0.106
25,CCCCAAAC,-0.117

row,Sequence,PBM E-score
1,CCCTCTCA,-0.404
2,ACTCGAAG,0.00137
3,CCCGAGTA,-0.0333
4,ACCCCCAT,-0.311
5,ATATGTCC,0.121
6,CTTCCTAA,-0.0563
7,CCGCACTA,0.00317
8,CCGAACCC,-0.31
9,CGTGGGAG,-0.214
10,CGCTCGCA,-0.11
11,AAAACAGA,0.199
12,ACTCTGTC,0.0818
13,GCCACGAA,-0.0633
14,ATACTTTC,0.0214
15,CTTGATAA,0.0832
16,GTCAGCAC,0.0528
17,AGCCAGAT,-0.0349
18,GGAACTAA,-0.0367
19,AATTACGC,0.331
20,CTGACGGC,0.111
21,ATCACAGA,0.12
22,AGGCAAAA,0.16
23,TATACAAA,0.186
24,GTCGACAA,0.00675
25,CCAATGAG,-0.152

row,Sequence,PBM E-score
1,AGCTGTCG,-0.183
2,ACAAGTTC,-0.0239
3,ACCGAGAG,-0.132
4,AACGGACC,-0.151
5,CCGAAGAG,-0.146
6,GGGCGTGA,0.0604
7,GCCGCTTA,0.221
8,ACCAGATC,0.034
9,CATGACCA,0.0978
10,ATAATCAT,0.344
11,CCCGTGCG,0.0646
12,GGCTAGCA,-0.12
13,AACTTAAT,0.208
14,ACATAGTA,0.279
15,AACATATG,0.071
16,AGGGTAAA,0.0206
17,CCAATCAA,-0.0938
18,CTATGCGA,-0.126
19,CCTTGAGA,-0.204

# Reference: the supplement of paper PMC3334620
